# Laboratory results reported in the supplement of paper PMC11417369.
# The list shows a part of the results.
# Test system: PF3D7_0420300 AP2 domain 1 (GST-tagged)
# Experiment: gcPBM binding intensity (ln(normalized median fluorescence intensity)); higher = stronger DNA binding
# Outline: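 Binding of GST-tagged P. falciparum DNA-binding domains, expressed in E. coli and used at about 25 μg on average, was carried out for 1 h in 1× PBS containing 1% milk, 0.2 mg/ml BSA, 0.5% salmon testes DNA and 0.03% Triton X-100. The target was an Agilent 4 × 180k array of primer-extended double-stranded 36-bp intergenic genomic probes plus negative controls, read with Alexa488 anti-GST antibody at 488 nm. Binding intensity is the highest Masliner-normalised natural-log median intensity across replicate spots of either probe orientation.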
row,Sequence,gcPBM binding intensity (ln)
1,TATAACAATTTTTATGCATGCGACTATAATATTTTT [TGCATGCA_site508],9.28
2,TAAGGATTGGTATAAAGTACAGGAGTAAATTGAAAA [XGTACX_site8525],9.24
3,TACATATTGAATAAGACACACATATATATATATATA [CACACA_site1878],9.28
4,ATATTTTTTTTTTATTGTACCCTCATAAAAGAAAAG [XGTACX_site773],8.9
5,CATACACATATATATTGTACACATATATGTATGTAT [XGTACX_site4030],9.29
6,TATATACACGCACATACACACAAATAAAAAAACACC [CACACA_site7578],9.93
7,GTATTATTCTATAGAAGTACAGTATATTATTATTTA [XGTACX_site5073],9.23
8,TGTGTTGTAATTAAAACACACATGAAAAAATTAAAA [CACACA_site51],9.3
9,TAATGTATCTAAAATTGTACAAATATAAATCTAAAT [XGTACX_site1197],9.21
10,CGCGCCCAGAAACACACACACACACCGATATATATA [CACACA_site5250],10.3
11,ACAAAGATAAAACATAAAATATATCAAACATAAAAT [XGTACX_negctrl_site198],9.65
12,AATAAATATAAATACACACCCATATAAATATAAATA [CACACA_site7264],9.85
13,AAAAAAAATACATGTTGTACGGTACAAATATAAAGT [XGTACX_site2863],9.75
14,AAAATAATAAAAAAAAAAAAAAAAAAAAAAAAGTAT [TGCATGCA_negctrl_site193],9.74
15,ATATATCTTCTTTGCACACTTAAAGGGAAGTGATAA [CACACA_site342],9.1
16,AAAAAAATAATAAAATGTACAAATAAACACATAAAG [XGTACX_site5102],9.69
17,AAATAAAATAAAACAACACACACGAATGTATAAATA [CACACA_site885],9.99
18,TTTATTTTATTCACTATCATAAGCAAAACTTAAACA [GTGCAC_negctrl_site287],8.8
19,ATTAATAATATTACATGTACATAATATAATTGAAAA [XGTACX_site5084],9.25
20,TTAGATATTATTATATGTACATATTATATGTATTAT [XGTACX_site3836],9.29
21,TAGTTAATATGATTATGTACATATATATATTAATTT [XGTACX_site1750],9.18
22,ATTTTTTTTTTTTTTTTTTTTTTTTTTTTTGTTGTT [CACACA_negctrl_site1313],9.12

row,Sequence,gcPBM binding intensity (ln)
1,TGTATATGAAAAAATAGTACTCATATAAATATCTTT [XGTACX_site6542],9.17
2,ATAATATATTTATAAACACACAAAAAAAGTTATATA [CACACA_site6831],9.51
3,TTATTTATGAAGTATACACACAATATATATATATAT [CACACA_site1248],9.34
4,TTAATCCACAGACACACACACACAAAATAAAATACA [CACACA_site244],10.2
5,AATATATTAAATATTACACACATACATTTAGTGTAA [CACACA_site5145],9.35
6,TATATATTAAACTTTGCACACATAATTTAACTACAA [CACACA_site3440],9.4
7,TTTTTTATTCCATAATATAATATGTTTTGAAATTTG [GTGCAC_negctrl_site440],9.08
8,ATATACATATCAATGTAATATTATATACTTTTTTAG [CACACA_negctrl_site816],9.13
9,ATATAATTATATTCCATACACACATATATTTAAAGG [CACACA_site2958],9.42
10,AAAAAAATAAATAAATGTACATATATAAAACATTGT [XGTACX_site2136],9.42
11,AAACGAGAACATAATAAATACATAAATAAATAAATA [GTGCAC_negctrl_site433],9.51
12,AACAAATACGAACACACACACACACTAAAAAAAAAA [CACACA_site6386],10.2
13,ATAATATGAAAACACACACACACACCCAAAAAAAAA [CACACA_site2011],10.2
14,ATATATATTATATATATATATATATATATATATATA [CACACA_negctrl_site493],8.81
15,CACATTAATTTTTGGGTGCACTTGGGAAATTTTGGT,9.17
16,AGGATATAATACCATACACACATTTATAAAATAACA [CACACA_site1930],9.75
17,TGTAATCAAAAAAATAGTACATAAATTGTGTATACT [XGTACX_site5908],9.23
18,TAATAAATAAATGACACACACACACGCAAAAAAAAA [CACACA_site7275],10.1
19,AATTTGAAATATGTGGTGCAGTTATATAATATGTTT [GTGCAC_site9885],9.5
20,ATATTTTCCCTTGTTTTACACACGTGCTGATATGAG [CACACA_site8672],9.84
21,TGTAGTCTGGAGAAAAGTACACAGTATCTGGTAACC [XGTACX_site2033],9.17
22,ATATAGAATAAAACTATACACACCTATATTTAAACA [CACACA_site1902],9.64
